Data from the CheMixHub viscosity set.
± gives the uncertainty stated by the source. Certain results were filed several times, with different values. This list holds those alone. There may be further records. The values listed for one entry repeat one measurement in other runs, samples, wells, individuals or studies. What stands in brackets tells the records apart. The letters are not those of the source and start again with each entry.

How the values were obtained:
[1] = xn = mol fraction of the nth substance listed; settings: 323.15 K; 101 kPa; x2 = 0.7

Structure (SMILES): C[N+](C)(C)CCO.[Cl-] + OCCO
- viscosity [1]: 19 mPa·s [study A] and 18.72 ± 0.39 mPa·s [study B]

Structure (SMILES): Cc1ccc(C)cc1
- viscosity (293.15 K, 101.33 kPa): 0.648 ± 0.005 mPa·s, 0.648 ± 0.007 mPa·s [study A] and 0.6433 ± 0.017 mPa·s [study B] and 0.655 ± 0.009 mPa·s [study C]
- viscosity (298.15 K, 101.3 kPa): 0.5936 ± 0.016 mPa·s [study A] and 0.602 ± 0.005 mPa·s [study B] and 0.605 ± 0.0043 mPa·s [study C] and 0.613 ± 0.007 mPa·s [study D]
- viscosity (298.15 K, 101.33 kPa): 0.6071 ± 0.0077 mPa·s [study A] and 0.6045 ± 0.016 mPa·s [study B] and 0.551 ± 0.008 mPa·s [study C] and 0.61 ± 0.004 mPa·s [study D]
- viscosity (303.15 K, 101 kPa): 0.564 ± 0.006 mPa·s [study A] and 0.5687 ± 0.015 mPa·s [study B] and 0.5874 ± 0.017 mPa·s [study C] and 0.5651 ± 0.004 mPa·s [study D] and 0.5578 ± 0.0051 mPa·s [study E] and 0.5203 ± 0.0082 mPa·s [study F]
- viscosity (308.15 K, 101 kPa): 0.533 ± 0.008 mPa·s [study A] and 0.5538 ± 0.016 mPa·s [study B] and 0.533 ± 0.022 mPa·s [study C] and 0.5196 ± 0.0044 mPa·s [study D] and 0.534 ± 0.011 mPa·s [study E] and 0.5334 ± 0.012 mPa·s [study F]
- viscosity (308.15 K, 101.33 kPa): 0.5381 ± 0.0069 mPa·s [study A] and 0.5355 ± 0.015 mPa·s [study B] and 0.49 ± 0.007 mPa·s [study C] and 0.539 ± 0.004 mPa·s [study D] and 0.563 ± 0.004 mPa·s [study E]
- viscosity (313.15 K, 101 kPa): 0.512 ± 0.005 mPa·s [study A] and 0.512 ± 0.014 mPa·s [study B] and 0.512 ± 0.012 mPa·s [study C] and 0.4592 ± 0.0075 mPa·s [study D]
- viscosity (323.15 K, 101 kPa): 0.4664 ± 0.014 mPa·s [study A] and 0.4475 ± 0.0043 mPa·s [study B] and 0.4641 ± 0.013 mPa·s [study C] and 0.4046 ± 0.0069 mPa·s [study D]

Structure (SMILES): c1ccc(Nc2ccccc2)cc1
- viscosity (323.15 K, 101.33 kPa): 6.1 ± 0.074 mPa·s, 5.993 ± 0.072 mPa·s, 0.633 ± 0.008 mPa·s

Structure (SMILES): OCCOCCO
- viscosity (303.15 K, 101 kPa): 21.87 ± 0.11 mPa·s [study A] and 21.87 ± 0.11 mPa·s [study B] and 21.87 ± 0.11 mPa·s [study C] and 21.87 ± 0.35 mPa·s [study D] and 21.87 ± 0.15 mPa·s [study E] and 21.87 ± 0.89 mPa·s [study F]
